Source: PubChem BioAssay AID686979 (National Center for Advancing Translational Sciences (NCATS), 2013)
Hit rate of the full screen: of about 420,000 compounds, about 50,000 (12%) were called active. The inconclusive results got no clear call from the source; some entries with a clear call stand among them for comparison. Calls follow the shape of the dose curve; as a rule, active = well fitted inhibition curve with a large enough effect; inconclusive = small, poorly fitted or top-dose-only effect; inactive = flat fitted curve, though single readings scatter. Potencies of inconclusive entries are left out as doubtful fits.

Experiment: qHTS for Inhibitors of human tyrosyl-DNA phosphodiesterase 1 (TDP1): qHTS in cells in presence of CPT; also: nearly all actives have a fitted effect of over 55% in size
Conditions: chicken DT40 Tdp1-/-;hTDP1 cells + 20 nM CPT, ATP luminescence, 48 h; activity change, negative = growth inhibition: at 46.2 µM (top of the series) unless noted
Procedure, shortened: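 Cell growth measured by CellTiter-Glo luminescence after a minimum 48 h, 37 C compound exposure with 20 nM CPT in Tdp1-knockout DT40 cells stably expressing hTDP1, seeded 400/well; qHTS titration format.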
% is scaled to controls: 0 for no effect and ±100 for the full control effect; potency is read from the fitted curve at half-maximal effect; tags tell the direction and shape of the fitted curve.

SMILES	activity change, negative = growth inhibition	Potency
CC(=O)Nc1ccnn1C1CCN(C(=O)c2cccc(C)c2C)CC1	inactive: -8.24%	
CCOc1ccccc1CNC(=O)CN1C(=O)CCCc2ccccc21		inconclusive [inhibitor, single point]
Cc1cccc(OCC(=O)NC2CC(C)(C)NC(C)(C)C2)c1	inactive: 8.74%	
Cc1ccc(-n2ncc3c(NCCc4ccccc4)ncnc32)cc1C		inconclusive [inhibitor, single point]
CCOC(=O)CSc1nc2sc3c(c2c(=O)n1Cc1ccccc1)CC(C)CC3 (configuration not stated)		inconclusive [inhibitor, single point]
CCOC(=S)N/C(=N\S(C)(=O)=O)c1ccccc1		inconclusive [inhibitor, single point]
O=C(Cn1nc(N2CCN(c3ccccc3)CC2)ccc1=O)NCc1cccc(Cl)c1		inconclusive [inhibitor, single point]
COc1ccccc1NC(=O)c1ccc(NC(=O)C2CC2)cc1	inactive: 8.74%	
CS(=O)(=O)Nc1ccc(C2=NN(C(=O)CCCC(=O)O)C(c3cccs3)C2)cc1 (configuration not stated)	inactive: -7.55%	
Cc1cccc(OCCCCn2nnc3sc4c(c3c2=O)CCC(C)C4)c1 (configuration not stated)	inactive: -3.3%	
Cc1cccc(-c2cnc(C(O)c3cc(C)cc(C)c3)[nH]2)c1 (configuration not stated)		inconclusive [inhibitor, single point]
COC1=C(Br)C(=O)c2ncccc2C1=O		active: 0.517 µM
Cc1ccc(OCc2nc3ccccc3n2C(C(=O)NC(C)(C)C)c2ccccc2)cc1 (configuration not stated)		inconclusive [inhibitor, single point]
Cn1ccnc1C(O)(c1ccccc1)c1ccccc1	inactive: -12.1%	
Cc1nc2nc(SCC(=O)NCc3ccccc3)nn2c(C)c1Cc1ccccc1Cl		inconclusive [inhibitor, partial curve, poor fit]
COc1cccc(CNC(=O)c2ccc(C(=O)NCc3cccc(OC)c3)cc2)c1	inactive: 7.52%	
CC(C)NC(=S)N1CCCN(c2ncccc2[N+](=O)[O-])CC1	inactive: -12%	
CCOC(=O)C1=C(CSCC(=O)OC)NC(=O)NC1c1cc(C)ccc1C (configuration not stated)	inactive: -12.3%	
CCN(CC)c1ccc2cc(-c3nnc(-c4ccncc4)o3)c(=O)oc2c1		active: 11.6 µM
CCC/C=N/NC(=O)c1[nH]c2c([N+](=O)[O-])cccc2c1C		inconclusive [inhibitor, single point]
Cc1ccc2c(c1)Sc1c(ccc3ccccc13)N2		inconclusive [inhibitor, single point]
CC(C)(C)C(=O)Nc1nc(NC(=O)C(C)(C)C)nc(-c2ccccc2Cl)n1	inactive: -14.7%	
CC(=O)NCCOc1nc(N(C)C)nc(N(C)C)n1	inactive: 0.536%	
Cn1c2ccccc2c(=O)c2ccc(C#Cc3ccc(N)cc3)cc21		inconclusive [inhibitor, single point]
Cc1ccc(OCCSc2nc3ccc(NC(=O)COc4ccc(F)cc4)cc3s2)cc1		inconclusive [inhibitor, partial curve]
COc1ccc(COC(=O)C2=C(C)NC(=O)NC2c2ccc(OC)cc2)cc1 (configuration not stated)		inconclusive [inhibitor, single point]

SMILES	activity change, negative = growth inhibition	Potency
CCOc1ccc(NC(=O)OCCN2CCN(CCc3ccccc3)C(C)C2)cc1 (configuration not stated)		inconclusive [inhibitor, single point]
O=C(O)c1ccc(/C=N\Nc2ccccn2)cc1		inconclusive [inhibitor, single point]
O=S1(=O)CCC(NC(=S)N2CCCCCC2)C1 (configuration not stated)	inactive: 9.05%	
CC(C)(C)OC(=O)NNC(=S)NCc1ccc(Cl)cc1	inactive: -0.925%	
CCc1cccc(C)c1NC(=O)CN1CCCN(Cc2ccc(C)cc2)S1(=O)=O		active: 16.4 µM
COc1ccc(-c2c(C)nn3c(C(F)(F)F)cc(-c4ccc(Br)cc4)nc23)cc1	inactive: 2.2%	
CC(C(=O)NCc1cccs1)N1CCN(S(=O)(=O)c2ccc3c(c2)OCCCO3)CC1 (configuration not stated)		inconclusive [inhibitor, single point]
O=c1oc2ccccc2n1CCn1c2ccccc2c2nc3ccccc3nc21		active: 16.4 µM
O=C(Nc1nccs1)c1cc([N+](=O)[O-])ccc1Cl		inconclusive [inhibitor, single point]
CCOC(=O)[C@]12CCCC=C1N(Cc1ccc(Cl)cc1Cl)C(=O)[C@H](CC(=O)N1CCN(C(=O)c3ccco3)CC1)C2		inconclusive [inhibitor, single point]
COc1ccccc1N1CCN(C(=O)c2cc(=O)c3c(C)cc(C)cc3o2)CC1	inactive: -24.1%	
COC(=O)CN1C(=O)[C@H]2[C@@H](C3CC3)N3C(=O)CN(CCO)C(=O)[C@@]3(Cc3ccccc3)[C@H]2C1=O	inactive: -6.47%	
CCc1nn(CC(=O)NCCCN(Cc2ccccc2)C(C)C)c(=O)c2cc3sccc3n12		inconclusive [inhibitor, single point]
O=C(Cc1ccccc1F)Nc1ccc(SC(F)F)cc1		inconclusive [inhibitor, partial curve]
Cc1sc(NC(=O)C2C3CCC(C3)C2C(=O)O)c(C(N)=O)c1-c1ccc(C(C)(C)C)cc1 (configuration not stated)		inconclusive [inhibitor, partial curve]
O=C(O)/C=C/C(=O)Nc1cccc2cccnc12	inactive: -0.0721%	
O=C(CN1CCCN(Cc2ccccc2Cl)S1(=O)=O)Nc1ccc2c(c1)OCCO2		inconclusive [inhibitor, partial curve]
Cc1cc(C)n2c(Nc3c(C)cccc3C)c(-c3ccsc3)nc2n1		inconclusive [inhibitor, partial curve, poor fit]
O=C(NCCCn1ncc2ccccc21)c1cc(COc2c(F)cccc2F)on1		inconclusive [inhibitor, single point]
COc1ccc(C(c2nnnn2Cc2ccccc2)N2CCN(c3nc4ccccc4s3)CC2)cc1OC (configuration not stated)		inconclusive [inhibitor, single point]
COc1ccc(C2/C=C\CN(C(=O)C3CCCC3)CC(=O)N2Cc2ccc(F)cc2)cc1 (configuration not stated)		active: 20.6 µM
O=C(Nc1ncccc1Cl)C1COc2ccccc2O1 (configuration not stated)	inactive: -21.2%	
CCCCn1nnnc1C(c1cc2ccccc2o1)N(C)Cc1ccc(Cl)c(Cl)c1 (configuration not stated)		inconclusive [inhibitor, single point]
COc1ccccc1/C=C/C=N/NC(=O)CCn1nnc2ccccc21		inconclusive [inhibitor, single point]
COc1ccc(C2=C(Nc3ccc(F)cc3)c3ccccc3C2=O)cc1		inconclusive [inhibitor, single point]
O=C1CCCC2=C1C(c1ccco1)Nc1ccc(C(=O)c3ccccc3)cc1N2 (configuration not stated)		active: 14.6 µM

SMILES	activity change, negative = growth inhibition	Potency
Cc1ccc2c(c1)cc(CN(Cc1ccc3c(c1)OCO3)C(=O)c1cnccn1)c1nnnn12		inconclusive [inhibitor, single point]
Cc1ccccc1CN1CCc2nc(Nc3ccc4c(c3)OCCO4)ncc2C1		active: 23.1 µM
CCOc1ccc(CCNC(=O)c2ccc(CS(=O)(=O)Cc3ccccc3Cl)o2)cc1OCC		active: 16.4 µM
CN(CC(=O)Nc1ccccc1Cl)C(=O)CCSc1ccc(F)cc1		inconclusive [inhibitor, partial curve]
OCCNCCO	inactive: -2.44%	
COc1ccc(S(=O)(=O)N2CCOCC2)cc1C(=O)N(C)Cc1ccco1	inactive: 0.398%	
CC1CCN(CC(=O)Nc2cccc(Cl)c2)CC1		inconclusive [inhibitor, single point]
CCN(C(=O)COc1cc(=O)n(C)c2ccccc12)c1cccc(C(F)(F)F)c1		inconclusive [inhibitor, single point]
Cc1ccc(S(=O)(=O)N2CCN(c3ccccc3)CC2)cc1C(N)=O	inactive: -21.7%	
COc1ccc(NC(=O)CN2c3cccc4cccc(c34)S2(=O)=O)cc1OC		inconclusive [inhibitor, single point]
O=C(CN1CCN(Cc2ccccc2F)C1=O)NC1CCCC1	inactive: -3.14%	
Cc1cc(S(=O)(=O)Nc2ccccc2C)ccc1F	inactive: 1.42%	
CCCC(=O)c1ccc(N2CCN(S(=O)(=O)c3ccccc3)CC2)c(F)c1		inconclusive [inhibitor, single point]
Cc1nnc2n1N=C(c1ccc(F)cc1F)CS2	inactive: -4.97%	
COC(=O)C1=C(C)N(Cc2ccco2)C(=O)N[C@H]1c1cccc(C(F)(F)F)c1		inconclusive [inhibitor, single point]
Cc1cccc(C)c1NC(=O)CN1CCN(c2ccc(C(F)(F)F)cn2)CC1		active: 14.6 µM
O=C(Nc1nc(-c2ccco2)c(-c2ccco2)s1)c1ccc(F)cc1F		inconclusive [inhibitor, partial curve, poor fit]
O=C(NNC(=O)c1ccc2ccccc2c1O)c1cccs1	inactive: 17.7%	
O=C(O)Cn1c2ccccc2c2n[nH]c(=S)nc21	inactive: 15.2%	
O=C(CCSCCc1ccccn1)Nc1ccc(Cc2ccncc2)cc1	inactive: -0.182%	
COc1ccccc1CCC(=O)OCC(=O)Nc1ccc(C(N)=O)cc1		active: 14.6 µM
O=C(COc1ccccc1[N+](=O)[O-])NNC(=O)Nc1cccc2ccccc12		inconclusive [inhibitor, single point]
Cn1cccc1C(=O)NCc1ccccn1	inactive: 9.62%	
O=C(NN=C1CCCC1)c1cc(-c2ccc(F)cc2)nc2ccccc12	inactive: -13.4%	
COCCn1c(=O)[nH]c2cc(C(=O)NCC3CCCO3)ccc2c1=O (configuration not stated)	inactive: -10.3%	
